According to PubChem BioAssay AID1963576 (National Center for Advancing Translational Sciences (NCATS), 2024):
Among all 46,000 compounds or so, about 60 (0.1%) were called active. Roughly 3% stayed inconclusive and do not appear here. Calls follow the shape of the dose curve; as a rule, active = well fitted inhibition curve with a large enough effect; inconclusive = small, poorly fitted or top-dose-only effect; inactive = no such curve, though single readings can be large or run the other way. This is one part of the list.

assay: Primary qHTS assay for Inhibitors of ovarian cancer metastasis using an organotypic tumor microenvironment (TME) model.; also: nearly all actives have a fitted effect of over 65% in size;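 as to activity change, negative = inhibition: plate controls were DMSO wells for no effect and tomatine positive control wells for full effect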; settings: SKOV3ip1-GFP adhesion/invasion on 3D omental model, fluorescence; series mostly up to 45.8 µM; activity change, negative = inhibition: at the top concentration
Procedure, shortened: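 Adhesion/invasion was scored as fixed GFP-labeled SKOV3ip1 cell counts (488/509 nm), normalized to DMSO and tomatine controls. Cancer cells in serum-free medium, with four compound doses (0.36-46 umol/L), sat 2 hr at RT then 16 hr at 37 C on a 48 hr fibroblast/mesothelial/ECM culture.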

Activity change, negative = inhibition, inactive:
CNC(=O)Cn1nc(-c2ccc(Cl)cc2)c2ccccc2c1=O 1.17%, Cc1ccc(CN(C(=O)COc2ccc(Cl)cc2)c2ccccn2)o1 8.28%, Cc1cc(NC(=O)CCNS(=O)(=O)c2ccc3c(c2)CCCC(=O)N3)ccc1Br 6.26%, COc1cccc(N2CCN(C(=O)C3CCN(S(=O)(=O)c4cccc5nonc45)CC3)CC2)c1 -0.518%, CCOC(=O)c1ccc(NC(=O)CC2Sc3ccc(C(F)(F)F)cc3NC2=O)cc1 (stereo not given) 2.99%, COc1ccc(NC(=O)CSC2=Nc3ccccc3C3=NC(CCC(=O)NCc4ccc(F)cc4)C(=O)N23)cc1Cl (stereo not given) 6.06%, COc1cccc(C(=O)Nc2cccc(NC(=O)c3ccc(Cl)cc3Cl)c2)c1 1.67%, Cc1ccc(C)c(N2CCN(C(=O)c3cc4c(=O)n(Cc5ccco5)ccc4nc3C)CC2)c1 -2.05%, COc1ccc(CCNC(=O)Cn2nc(C)n3c(cc4cc(F)ccc43)c2=O)cc1OC 7.53%, Cc1cccc(NS(=O)(=O)c2ccc3c(c2)[C@H]2C=CC[C@H]2[C@@H](c2ccc(F)cc2)N3)c1 8.38%, CCc1ccc(C(=O)c2cn(CC(=O)Nc3cc(OC)ccc3OC)c3ccc(C)cc3c2=O)cc1 3.69%, CCCOc1ccc(-c2nn(-c3ccccc3)cc2C2NC(=O)NC(C)=C2C(=O)OC)cc1 (stereo not given) -5.02%, COC(=O)c1cc(S(=O)(=O)NCC2CCN(Cc3ccc(C)cc3)CC2)cn1C 20.5%, CCC(C)Nc1sc(S(=O)(=O)CC)nc1S(=O)(=O)c1ccc(C)cc1 (stereo not given) 12.5%, CCOc1ccc(CNC(=O)CCCn2nc(C)c3sc4ccccc4c3c2=O)cc1 1.51%, CC1=C(C(=O)Nc2cccnc2)C(c2ccccc2)n2nc(SCc3ccccc3Cl)nc2N1 (stereo not given) 13.5%, O=C(Nc1ccc(N2CCN(c3ccc(F)cc3)CC2)c(C(=O)O)c1)c1ccccc1F -7.77%, COc1ccc(C)cc1NC(=O)C1CCN(S(=O)(=O)c2ccc3c(c2)CCCN3C(C)=O)CC1 5.33%, CCCCOc1ccc(Cn2c(=O)oc3ccc(C)cc32)cc1 -7.65%, CCc1ccc(NC(=O)CN2C(=O)C(c3ccc(F)cc3)=NC2(C)C)cc1 -14.7%, Cc1ccc(CCNC(=O)Cn2ncc3c([nH]c4ccc(C)cc43)c2=O)cc1 -4.14%, COc1ccc(OC)c(NC(=O)CSc2cn(CC(=O)N3CCCCCC3)c3ccccc23)c1 8.79%, CCCN(CCC)CCNC(=O)Cn1cc2c(n1)-c1c(oc(C(=O)N3CCCC3)c1C)CC2 -9.97%, CCOc1ccc(Cn2c(-c3ccc(OCC)c(OC)c3)nc3ccccc32)cc1OC -4.12%, Cc1cc(NCc2ccccc2Cl)n2cnnc2n1 -29.1%, Cc1ccc(NC(=O)CSc2nc3ccccc3nc2Cc2ccccc2)c(C)c1 -2.87%, Cc1cccc(NC(=O)c2cc(-c3ccc4c(c3)OCCO4)on2)c1 -0.75%, COc1ccc(S(=O)(=O)N2CCN(c3ccc(Cl)c(Cl)c3)CC2)c2ccccc12 2.62%, COc1ccc(CNC(=O)C2CCN(S(=O)(=O)c3ccc(F)cc3)CC2)cc1 3.96%, Cc1ccc(CNC(=O)C2CCCCN2S(=O)(=O)c2ccc(F)cc2)cc1 (stereo not given) 3.37%, CC(CNC(=O)c1ccc(CSc2nc3ccncc3n2Cc2ccc(F)cc2)cc1)c1ccccc1 (stereo not given) 5.05%, CCN(c1ccccc1)S(=O)(=O)c1nnc(NC(=O)C(C)(C)C)s1 3.73%, COC(=O)c1ccc2c(c1)N(Cc1cc(C)ccc1C)C(=O)c1ccccc1S2 -0.146%, COc1ccc(-c2cc3ccc(O)c(CN4CCCC(C)C4)c3oc2=O)cc1 (stereo not given) -4.39%, CCOc1ccc(CCNC(=O)Cn2c(=O)c3cccn3c3ccc(F)cc32)cc1OCC -8.64%, COC(=O)c1ccc(Cn2c(SCc3ccccc3F)nc3ccncc32)cc1 14.2%, Cc1nc2nc(NCc3cccc(Cl)c3)[nH]n2c(=O)c1Cc1ccccc1 1.51%, CCN(CC)S(=O)(=O)c1ccc2c(c1)nc(CN(C)C(=O)Nc1cccc(Cl)c1)n2C -23%, COc1cccc(C(=O)c2cn(CC(=O)Nc3cccc(C(F)(F)F)c3)c3nc(C)ccc3c2=O)c1 -2.58%, CC(=O)N1CCc2cc(S(=O)(=O)NC(CC(C)C)C(=O)NCCc3ccc(C)cc3)ccc21 (stereo not given) 4.14%, COc1ccc(Cn2c(CCC(=O)Nc3ccc(C)c(C)c3)nc3cccnc32)cc1 -1.7%, Cc1ccc(Cl)cc1-n1ncc2c(NCc3ccc(F)cc3)ncnc21 -0.355%, CC1C(=O)Nc2ccc(S(=O)(=O)NCc3ccc(N(C)C)cc3)cc2NC1=O (stereo not given) -6.44%, COc1ccc(OCCn2c(C(C)Oc3ccccc3)nc3ccccc32)cc1 (stereo not given) 2.04%, CCOC(=O)c1cnc2ccc(C(=O)OC)cc2c1Nc1ccccc1CC 3.94%, Cc1ccccc1Cn1nnc2c(=O)[nH]c(C3CCN(C(=O)c4ccccc4)CC3)nc21 -22%, CCOc1ccc(C2c3[nH]c4ccccc4c3CCN2C(=O)Cc2cccc(OCC)c2OCC)cc1 (stereo not given) -1.93%, CCOC(=O)c1c(S(=O)(=O)NCC(=O)Nc2ccc(C)c(Cl)c2)c(C)n(C)c1C 6.21%, COc1ccc(NC(=O)C2CCCN2S(=O)(=O)c2cccc3cccnc23)cc1OC (stereo not given) 10.6%, CC(C)(C)n1cnc2cc(NCc3ccccc3Cl)ccc21 6.36%, CSc1ncc(C(=O)NCc2ccccc2)c(-c2ccccc2)n1 -9.19%, O=C(C=Cc1ccc(O)cc1)c1ccc(O)cc1O 0.446%, CN(C)c1ccc(CNC(=O)C2CCN(S(=O)(=O)c3ccc4c(ccn4C)c3)CC2)cc1 1.64%, COCCCn1c(SCC(=O)NCc2ccccc2)nc2c(sc3ccccc32)c1=O 0.353%, COc1ccc(C(=O)Nc2nc3c(s2)CCc2cc(OC)ccc2-3)cc1 -7.85%, Cc1ccc(N2CCN(C(=O)c3c4c(nc5ccccc35)C(=O)N(C3CCCCC3)C4)CC2)c(C)c1 0.242%, CCOC(=O)c1ccc(NC(=O)C(CC)Sc2nc3ncccc3o2)cc1 (stereo not given) 16%, CN(C)c1ccc2nc3ccc(=[N+](C)C)cc-3sc2c1 1.36%, Cc1ccc(C)c(N2CCN(C(=O)Cn3c(-c4cccs4)cc4ccccc43)CC2)c1 5.63%, CCN(C(=O)Cn1cc(S(=O)(=O)Cc2ccccc2Cl)c2ccccc21)c1ccccc1 -10.7%, Cc1ccc(-n2c(SCC(=O)Nc3ccc4c(c3)OCO4)nc3c([nH]c4ccccc43)c2=O)cc1 7.45%, CCOc1cc(C2c3c(oc4ccc(F)cc4c3=O)C(=O)N2Cc2ccco2)ccc1O (stereo not given) 14.1%, CC(C)n1c(C=C[C@H](O)C[C@H](O)CC(=O)O)c(-c2ccc(F)cc2)c2ccccc21 1.69%, CCc1nc(-c2cccc(C)c2)c(-c2ccnc(NC(=O)c3ccccc3)c2)s1 7.85%, Cc1ccc(-n2ncc3c(N4CCN(CCO)CC4)ncnc32)cc1Cl 1.67%, CCCCNc1nc(Oc2ccc(OCC(N)=O)nn2)nc(N2CCOCC2)n1 -12.3%, COc1ccc(CCNc2ncnc3c2c(-c2ccccc2)cn3-c2ccc(F)cc2)cc1OC 2.53%, Cc1cccc(C(=O)N2CCc3cc(CNC(=O)Cc4ccc(F)cc4)ccc32)c1 2.83%, CCc1ccccc1N(C)C(=O)c1cnc(N2CCOCC2)c2ccccc12 -7.87%

outcome, inactive:
COc1ccc(-c2nc(CCNC(=O)c3cccs3)cs2)cc1, CS(=O)(=O)N(CC(=O)Nc1ccc(Br)cc1)c1ccccc1Br, Cc1nn(C)c2c1c(-c1ccccc1)cc(=O)n2Cc1ccccc1Cl, CCCCC(CC)CNC(=O)CN(C)S(=O)(=O)c1ccc2c(c1)c(=O)n(C)c(=O)n2C (stereo not given), CCCCN(C)C(=O)Cn1c(C2CC(=O)N(c3ccc(C)cc3)C2)nc2ccccc21 (stereo not given), Cc1ccc(C)c(NC(=O)Cn2c(=O)nc(-c3ccccc3)c3ccccc32)c1, CCOC(=O)c1ccc(NC(=O)CSc2nc3ccccc3c(=O)n2CCNC(C)=O)cc1, O=C(CS(=O)(=O)c1cccc2nsnc12)Nc1ccc(F)cc1, Cc1cccc(-c2nnn3c2nc(NCCc2ccc(S(N)(=O)=O)cc2)c2ccccc23)c1, COCCNC(=O)c1ccc2c(c1)N(Cc1cc(C)ccc1C)C(=O)c1ccccc1S2(=O)=O, CCSc1ncc(Cl)c(C(=O)N(Cc2ccc(N(C)C)cc2)Cc2ccco2)n1, COCCNC(=O)CSc1nc2cc3c(cc2c(=O)n1CCCC(=O)NCc1ccc(OC)cc1)OCO3, COC(=O)c1cc(S(=O)(=O)NCC2CCN(Cc3ccc(F)cc3)CC2)c[nH]1, CSc1ncc(C(=O)Nc2cccc(C)c2C)c(-c2ccccc2)n1, Cc1ccc(NC(=O)CSc2nc(-c3ccc(C(C)(C)C)cc3)nc3cc(=O)[nH]n23)cc1C, Cc1ccc(-c2nc(-c3cc4cccc(OCc5ccc(F)cc5)c4oc3=O)no2)cc1, CCOc1ccc2nc(N3CCCC(C(=O)NCCCOC)C3)sc2c1 (stereo not given), COc1ccc(-c2nc3sc(CCNC(=O)c4cccc(C(F)(F)F)c4)c(C)n3n2)cc1, Cc1cc(C)cc(-n2ccnc2SCC(=O)Nc2nc3ccccc3s2)c1, CCC(C(=O)NCc1ccccc1OC)n1nc(C)n2c(cc3sccc32)c1=O (stereo not given), CC(C)Oc1ccc(CNC(=O)c2ccc(NC(=O)N3CCSc4ncccc43)cc2)cc1, Cc1ccc(C)c(Nc2nn3c(=O)c4ccc(C(=O)NCCc5ccccc5)cc4nc3s2)c1, Cc1ccc(-c2cc(C(=O)NCc3cnn(C)c3)c3cc(Br)ccc3n2)cc1, CCC(=O)C1=C(c2cccc([N+](=O)[O-])c2)N(C(=O)CC)n2c(nnc2-c2ccccc2)S1, Cc1ccc(Cc2nc3ccccc3nc2SCC(=O)NCc2ccc(F)cc2)cc1, Cc1cc(Br)ccc1NC(=O)c1cn(C2CCCC2)c(=O)c2c1c1ccccc1n2C
